{
  "source": "PubChem BioAssay AID463173",
  "about": "(ICCB-Longwood Screening Facility, Harvard Medical School, 2010)",
  "note": "The campaign covered roughly 52,000 compounds. About 1,700 (3.3%) were called active. No stated cut-off is given here; in the data, active means survival mostly below about 52% (no sharp cut-off); inactive means mostly above about 56%. The list shows a part of the results.",
  "data": [
    {"system": "Wild type", "test": "S. aureus survival, RN4220 and DeltatarO strains – OD600, teichoic acid synthesis inhibitors, primary screen (AID 463173)", "details": "S. aureus RN4220 wild type/DeltatarO growth, OD600, 18 h, stronger effect = lower value, screened at 18.75 µg/mL (by protocol)", "values": [
      {"smiles": "COc1ccc(C(=O)Nc2nnc(SCc3cc(=O)n4cccc(C)c4n3)s2)cc1", "survival": "inactive: 81%"},
      {"smiles": "COC(=O)/C=C1/N/C(=N/c2nc3cc(C)ccc3o2)NC1=O", "survival": "inactive: 97%"},
      {"smiles": "O=S(=O)(c1ccc(Br)cc1)c1nnn2c1nc(NCc1ccc3c(c1)OCO3)c1sccc12", "survival": "inactive: 90%"},
      {"smiles": "Cc1cccc(CNC(=O)c2ccc3oc(=O)n(Cc4ccccc4)c3c2)c1", "survival": "inactive: 60%"},
      {"smiles": "COc1cc(Cl)c(C)cc1NC(=O)Cn1ncc2c1-c1cc(C)ccc1OC2", "survival": "inactive: 87%"},
      {"smiles": "CCCSc1ncc(Cl)c(C(=O)Nc2c(C(=O)Nc3ccc(OC)cc3)oc3ccccc23)n1", "survival": "inactive: 85%"},
      {"smiles": "CCCOc1ccc(CNC(=O)CCCn2nc(C)c3sc4ccccc4c3c2=O)cc1", "survival": "inactive: 112%"},
      {"smiles": "Cc1ccc(CNC(=O)CCCCCn2c(=O)c3sccc3n(CC(=O)Nc3c(C)cc(C)cc3C)c2=O)cc1", "survival": "inactive: 83%"},
      {"smiles": "O=C(Nc1cc(Cl)ccc1Cl)c1cc2nc(-c3ccc4c(c3)OCO4)cc(C(F)(F)F)n2n1", "survival": "inactive: 80%"},
      {"smiles": "CC1CCCN(Cc2nc3c(c(=O)n(C)c(=O)n3C)n2Cc2ccc(Cl)cc2)C1", "note": "(configuration not stated)", "survival": "inactive: 89%"},
      {"smiles": "CCOC(=O)Cc1nnc2c3ccccc3n(C)c2n1", "survival": "inactive: 118%"},
      {"smiles": "Cc1cc(C)cc(NC(=O)CSc2oc(-c3ccco3)nc2S(=O)(=O)c2ccc(Cl)cc2)c1", "survival": "inactive: 91%"},
      {"smiles": "Cn1nc(C(=O)NCc2ccccc2Cl)c2c1-c1ccccc1S(=O)(=O)C2", "survival": "inactive: 102%"},
      {"smiles": "CSc1ccc(CNC(=O)C2CCN(c3nc4ccccc4nc3C(F)(F)F)CC2)cc1", "survival": "inactive: 94%"},
      {"smiles": "COc1ccc(Cl)cc1NC(=O)C1CCN(S(=O)(=O)c2ccc3c(c2)CC(C)N3C(C)=O)CC1", "note": "(configuration not stated)", "survival": "inactive: 83%"},
      {"smiles": "COc1ccc(-n2ncc(C(=O)N3CCN(c4cc(C)ccc4C)CC3)c2C2CCN(C(=O)OC(C)(C)C)CC2)cc1", "survival": "inactive: 59%"},
      {"smiles": "COc1ccc(CNCc2c(C(=O)O)c(C)n(Cc3ccccc3C)c2C)c(OC)c1", "survival": "inactive: 127%"},
      {"smiles": "CCN(CC)CCNC(=O)c1cn(CCOC)c(=O)c2c1c1ccccc1n2C", "survival": "inactive: 79%"},
      {"smiles": "COc1ccc(Nc2cc(C)c3cc(NC(=O)Cc4ccc(Cl)cc4)ccc3n2)cc1", "survival": "inactive: 101%"},
      {"smiles": "Cc1ccc(Cl)cc1N1CCN(c2ncnc3c2nc2n3CCCCC2)CC1", "survival": "inactive: 70%"},
      {"smiles": "CCCCNC(=O)C1CCN(c2nc3ccccc3nc2C(F)(F)F)CC1", "survival": "inactive: 82%"},
      {"smiles": "COc1ccc(Cc2nnc(NC(=O)c3cccs3)s2)cc1OC", "survival": "inactive: 92%"},
      {"smiles": "Cc1cc(C)c(S(=O)(=O)N2CCC(N3CCN(Cc4ccccc4)C(=O)C3=O)CC2)c(C)c1", "survival": "inactive: 54%"},
      {"smiles": "Cc1ccc(-n2c(SCC(=O)NC(C)(C)C)nc(O)cc2=O)cc1", "survival": "inactive: 101%"},
      {"smiles": "COc1ccc2c(c1)c1c(c(=O)n(-c3ccccc3C)c(=O)n1C)n2C", "survival": "inactive: 81%"},
      {"smiles": "CCN(CC)S(=O)(=O)c1cccc(C(=O)Nc2sc3c(c2C#N)CCC(C)C3)c1", "note": "(configuration not stated)", "survival": "inactive: 146%"},
      {"smiles": "Cc1nnc(NC(=O)CSc2nccn2Cc2ccc(Cl)cc2)s1", "survival": "inactive: 118%"},
      {"smiles": "O=C(CSc1cn(CCNC(=O)c2c(F)cccc2F)c2ccccc12)Nc1ccc(F)cc1", "survival": "inactive: 134%"},
      {"smiles": "Cc1ccc(-c2c(C(=O)N3CCN(c4cc(Cl)ccc4C)CC3)oc(=O)c3ccccc23)cc1", "survival": "inactive: 77%"},
      {"smiles": "CCS(=O)(=O)c1ncc(Cl)c(C(=O)Nc2c(C(=O)Nc3cccc(C)c3)oc3ccccc23)n1", "survival": "inactive: 77%"},
      {"smiles": "COc1ccc(C)cc1NC(=O)c1cc2c(=O)n(Cc3cccnc3)ccc2nc1C", "survival": "inactive: 94%"},
      {"smiles": "Cc1nc2nc(NC(=O)CC(C)C)[nH]n2c(=O)c1Cc1ccccc1", "survival": "inactive: 110%"},
      {"smiles": "CCc1ccccc1NC(=O)Cc1ccc(NC(=O)N2CCCCc3ccccc32)cc1", "survival": "inactive: 128%"},
      {"smiles": "Nc1ccc(C(=O)N(CCO)CCO)cc1", "survival": "inactive: 98%"},
      {"smiles": "O=C(Nc1ccc(F)c(Cl)c1)N1CCC2(CC1)Oc1ccccc1C(=O)N2Cc1ccccc1F", "survival": "inactive: 79%"},
      {"smiles": "COc1ccccc1N1CCN(C(CNC(=O)C(=O)NCc2ccc(F)cc2)c2cccnc2)CC1", "note": "(configuration not stated)", "survival": "inactive: 103%"},
      {"smiles": "CCN(Cc1ccccc1)C(=O)c1cc2c(=O)[nH]c3ccc(C)cc3c2s1", "survival": "inactive: 72%"},
      {"smiles": "CCc1nnc(SCC(=O)Nc2cc(OC)ccc2OC)nc1CC", "survival": "inactive: 64%"},
      {"smiles": "COC(=O)c1c(NC(=O)c2cccs2)sc2c1C(C(=O)OC)CC2", "note": "(configuration not stated)", "survival": "inactive: 104%"},
      {"smiles": "Cc1cccc(Cn2c(COc3ccc(Cl)cc3)nc3ccccc32)c1", "survival": "inactive: 61%"},
      {"smiles": "Cc1ccc(CCNC(=O)c2cc3n(n2)CCCN(Cc2ccc(C)cc2)C3=O)cc1", "survival": "inactive: 65%"},
      {"smiles": "CCOc1ccc(S(=O)(=O)N(CC(=O)NCCSc2ccc(C)cc2)c2ccccc2)cc1", "survival": "inactive: 96%"},
      {"smiles": "Cc1ccc(NC(=O)N2CCN(c3ccc(Cl)c(Cl)c3)CC2)cc1", "survival": "inactive: 111%"},
      {"smiles": "CCCCn1cc(S(=O)(=O)c2ccc(C)c(C)c2)c(=O)c2cc(F)c(N(CC)CC)cc21", "survival": "inactive: 72%"},
      {"smiles": "COc1ccc(-c2nc(CN3CCC(C(=O)NCCc4ccccc4)CC3)c(C)o2)cc1OC", "survival": "inactive: 82%"},
      {"smiles": "CCn1nc(-c2ccccc2)c(-c2ccccc2)c(C(=O)Nc2nc(C)c(C(C)=O)s2)c1=O", "survival": "inactive: 89%"},
      {"smiles": "CCC(=O)N1CCc2cc(CNC(=O)c3ccc(OC)cc3)ccc21", "survival": "inactive: 127%"},
      {"smiles": "Cn1c(=O)c(=O)n(C)c2cc(N3CCCC3)c(NC(=O)c3ccccc3F)cc21", "survival": "inactive: 93%"},
      {"smiles": "O=C(Nc1sc2c(c1C(=O)Nc1cccc(Cl)c1)CCCC2)c1cccs1", "survival": "inactive: 140%"},
      {"smiles": "Cc1ccc(NC(=O)CSc2nc(=O)n(Cc3ccco3)c3c2CCC3)cc1F", "survival": "inactive: 71%"},
      {"smiles": "CC1Cc2ccccc2N1S(=O)(=O)c1nnc(NC(=O)c2cccc(F)c2)s1", "note": "(configuration not stated)", "survival": "active: 10%"},
      {"smiles": "CCC(=O)N1CCc2cc(CNC(=O)Cc3ccc(F)cc3)ccc21", "survival": "inactive: 82%"},
      {"smiles": "CCOc1cccc(C(=O)Nc2ccc(Cl)cn2)c1", "survival": "inactive: 97%"},
      {"smiles": "CCOc1ccc(-c2nnc(SCC(=O)Nc3ccc(C)cc3Cl)o2)cc1", "survival": "inactive: 126%"},
      {"smiles": "Cc1ccc2c(c1)-c1onc(C(=O)N3CCN(c4cc(Cl)ccc4C)CC3)c1CO2", "survival": "inactive: 83%"},
      {"smiles": "COC(=O)c1ccccc1NC(=O)c1cc(CN2CCCC2)on1", "survival": "inactive: 83%"},
      {"smiles": "Cc1ccc(NC(=O)c2cc(S(=O)(=O)NC3CCCCC3)ccc2F)cc1Cl", "survival": "active: -6%"},
      {"smiles": "O=C(NC1CCCC1)C(c1ccsc1)N(C(=O)Cc1cccs1)c1ccccc1", "note": "(configuration not stated)", "survival": "inactive: 110%"},
      {"smiles": "CCn1nnc2cc(C(=O)Nc3ccc(C)c(Cl)c3)ccc21", "survival": "inactive: 53%"},
      {"smiles": "COc1ccc(OC)c(CCNC(=O)c2cnn(-c3ccc(C)cc3C)c2C2CCN(C(=O)OC(C)(C)C)CC2)c1", "survival": "inactive: 88%"},
      {"smiles": "CCOC(=O)c1c(NC(=O)COc2ccc(C)cc2C(C)(C)C)sc2c1CCC(C)C2", "note": "(configuration not stated)", "survival": "inactive: 67%"},
      {"smiles": "Cc1c(C(=O)N2CCC(C)CC2)c(S(=O)(=O)Nc2cccc(C(F)(F)F)c2)c(C)n1C", "survival": "inactive: 78%"},
      {"smiles": "Cc1nn(S(=O)(=O)c2ccc(C(C)(C)C)cc2)c(C)c1S(=O)(=O)N1CCC(C)CC1", "survival": "inactive: 76%"},
      {"smiles": "COc1ccc(CNC(=O)Cn2c(=O)ccc3cc(S(=O)(=O)N4CCCC4)ccc32)cc1", "survival": "inactive: 82%"},
      {"smiles": "Cc1ccc(Cn2c(CNC(=O)Cc3cccc(C)c3)nc3cccnc32)cc1", "survival": "inactive: 71%"},
      {"smiles": "CC(=O)c1ccc(N2CCN(S(=O)(=O)c3cc(-c4noc(C)n4)ccc3C)CC2)cc1", "survival": "inactive: 133%"},
      {"smiles": "COCCN1C(=O)c2oc3ccc(C)cc3c(=O)c2C12C(=O)N(C)c1ccccc12", "note": "(configuration not stated)", "survival": "inactive: 82%"},
      {"smiles": "COC(=O)c1cc2oc3ccccc3c2n1Cc1nc(-c2cccc(C)c2)oc1C", "survival": "inactive: 72%"},
      {"smiles": "COc1ccc2[nH]cc(CCNC(=O)c3cnn(-c4ccc(C)cc4)c3C3CCN(C(=O)OC(C)(C)C)CC3)c2c1", "survival": "inactive: 97%"},
      {"smiles": "COCC(=O)Nc1cccc(-c2nc3cccnc3s2)c1", "survival": "inactive: 82%"},
      {"smiles": "COc1ccccc1CNC(=O)c1cnc(SC)nc1C", "survival": "inactive: 73%"},
      {"smiles": "CC(C)N(Cc1ccccc1)C(=O)C1CCCN(c2ncnc3onc(-c4ccc(F)cc4)c23)C1", "note": "(configuration not stated)", "survival": "inactive: 71%"},
      {"smiles": "Cc1cc(-c2ccc(S(=O)(=O)N3CCN(c4ccc(Cl)cc4)CC3)s2)on1", "survival": "inactive: 136%"},
      {"smiles": "COc1ccc(-c2nc3scc(CCNC(=O)c4cccc(Br)c4)n3n2)cc1", "survival": "inactive: 72%"},
      {"smiles": "COc1ccc(NC(=O)c2sc3nc4c(c(-c5ccc(OC)cc5)c3c2N)C(=O)CC(C)(C)C4)cc1", "survival": "inactive: 71%"},
      {"smiles": "CCOC(=O)c1ccc(N2C(=O)c3[nH]nc(-c4ccc(OCC)cc4)c3C2c2cccs2)cc1", "note": "(configuration not stated)", "survival": "inactive: 100%"},
      {"smiles": "CC(C)OC(=O)CSc1nnc(-c2ccccc2)n1Cc1ccco1", "survival": "inactive: 107%"},
      {"smiles": "CCOC(=O)c1ccc(NC(=O)CC2Nc3ccccc3NC2=O)cc1", "note": "(configuration not stated)", "survival": "inactive: 62%"},
      {"smiles": "O=C(Nc1cc(-c2nc3cc(Cl)ccc3o2)ccc1Cl)c1cc([N+](=O)[O-])ccc1N1CCOCC1", "survival": "inactive: 67%"},
      {"smiles": "Cc1ccc(-c2nnc(Nc3ccc(F)cc3)c3ccccc23)cc1S(=O)(=O)N1CCN(C)CC1", "survival": "inactive: 79%"},
      {"smiles": "Cc1ccc(CNCc2cccn2-c2nnc(N3CCCC3)s2)cc1", "survival": "inactive: 75%"},
      {"smiles": "O=C(c1ccccc1Cl)N1CCCCC1CCN1CCOCC1", "note": "(configuration not stated)", "survival": "inactive: 95%"},
      {"smiles": "CCOc1cccc2c1Oc1nc(-c3ccccc3)nc(SCC(=O)Nc3ccc(F)cc3)c1C2", "survival": "inactive: 86%"},
      {"smiles": "CC(C)CC(NC(=O)c1ccco1)C(=O)O", "note": "(configuration not stated)", "survival": "inactive: 95%"},
      {"smiles": "O=C(NCCc1ccc(Cl)cc1)c1ccc(CSCc2ccc(Cl)cc2)o1", "survival": "inactive: 72%"},
      {"smiles": "Clc1ccccc1-c1nnc(SCc2nc(-c3ccccc3)no2)n1-c1ccccc1", "survival": "inactive: 50%"},
      {"smiles": "COc1ccc(N2CCN(C(=O)Nc3ccccc3Cl)CC2)cc1", "survival": "inactive: 134%"}
    ]}
  ]
}
